# Data published in publication PMC9911399, “Two distinct binding modes provide the RNA-binding protein RbFox with extraordinary sequence specificity”.
# Residue numbers refer to the chain shown, from its start. This is one part of the list.
# T1: RBFOX1 RRM (Homo sapiens, UniProt Q9NWB1 109-208)
# T1 sequence: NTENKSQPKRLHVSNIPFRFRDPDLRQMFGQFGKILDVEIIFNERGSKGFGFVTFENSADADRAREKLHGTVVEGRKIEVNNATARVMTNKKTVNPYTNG
# B1: GGUUAUG (DNA:RNA)
# RNA: GGGAGACCGGAAUUCAGAUUGUCCGGUUAUGUUAAAUCCCGUCGUAGCCACCA
# DNA 1: CAATCTGAATTCCGGTCTCCC
# DNA 2: TGGTGGCTACGACGGGATT
# B2: AACCUUA (DNA:RNA)
# RNA: B1 RNA with G25A, G26A, U27C, U28C, A29U, G31A
# DNA 1: CAATCTGAATTCCGGTCTCCC
# DNA 2: TGGTGGCTACGACGGGATT
# B3: UUAGCCC (DNA:RNA)
# RNA: GGGAGACCGGAAUUCAGAUUGUCCUUAGCCCUUAAAUCCCGUCGUAGCCACCA
# DNA 1: CAATCTGAATTCCGGTCTCCC
# DNA 2: TGGTGGCTACGACGGGATT
# B4: CCACGGC (DNA:RNA)
# RNA: B3 RNA with U25C, U26C, G28C, C29G, C30G
# DNA 1: CAATCTGAATTCCGGTCTCCC
# DNA 2: TGGTGGCTACGACGGGATT
# B5: AAUCAGG (DNA:RNA)
# RNA: B1 RNA with G25A, G26A, U28C, U30G
# DNA 1: CAATCTGAATTCCGGTCTCCC
# DNA 2: TGGTGGCTACGACGGGATT
# B6: GCGCACC (DNA:RNA)
# RNA: B1 RNA with G26C, U27G, U28C, U30C, G31C
# DNA 1: CAATCTGAATTCCGGTCTCCC
# DNA 2: TGGTGGCTACGACGGGATT
# B7: UUCGUGA (DNA:RNA)
# RNA: B3 RNA with A27C, C29U, C30G, C31A
# DNA 1: CAATCTGAATTCCGGTCTCCC
# DNA 2: TGGTGGCTACGACGGGATT
# B8: ACAAGGA (DNA:RNA)
# RNA: B3 RNA with U25A, U26C, G28A, C29G, C30G, C31A
# DNA 1: CAATCTGAATTCCGGTCTCCC
# DNA 2: TGGTGGCTACGACGGGATT
# B9: CGACCCC (DNA:RNA)
# RNA: B3 RNA with U25C, U26G, G28C
# DNA 1: CAATCTGAATTCCGGTCTCCC
# DNA 2: TGGTGGCTACGACGGGATT
# B10: ACCGCAA (DNA:RNA)
# RNA: B3 RNA with U25A, U26C, A27C, C30A, C31A
# DNA 1: CAATCTGAATTCCGGTCTCCC
# DNA 2: TGGTGGCTACGACGGGATT
# B11: CUCUAGG (DNA:RNA)
# RNA: B1 RNA with G25C, G26U, U27C, U30G
# DNA 1: CAATCTGAATTCCGGTCTCCC
# DNA 2: TGGTGGCTACGACGGGATT
# B12: CCGCUUC (DNA:RNA)
# RNA: B1 RNA with G25C, G26C, U27G, U28C, A29U, G31C
# DNA 1: CAATCTGAATTCCGGTCTCCC
# DNA 2: TGGTGGCTACGACGGGATT
# B13: UAGACUG (DNA:RNA)
# RNA: B1 RNA with G25U, G26A, U27G, U28A, A29C
# DNA 1: CAATCTGAATTCCGGTCTCCC
# DNA 2: TGGTGGCTACGACGGGATT
# B14: UGAAGCU (DNA:RNA)
# RNA: B3 RNA with U26G, G28A, C29G, C31U
# DNA 1: CAATCTGAATTCCGGTCTCCC
# DNA 2: TGGTGGCTACGACGGGATT
# B15: GCUAGUC (DNA:RNA)
# RNA: B1 RNA with G26C, U28A, A29G, G31C
# DNA 1: CAATCTGAATTCCGGTCTCCC
# DNA 2: TGGTGGCTACGACGGGATT
# B16: ACGCAAU (DNA:RNA)
# RNA: B1 RNA with G25A, G26C, U27G, U28C, U30A, G31U
# DNA 1: CAATCTGAATTCCGGTCTCCC
# DNA 2: TGGTGGCTACGACGGGATT
# B17: CAUCGCG (DNA:RNA)
# RNA: B1 RNA with G25C, G26A, U28C, A29G, U30C
# DNA 1: CAATCTGAATTCCGGTCTCCC
# DNA 2: TGGTGGCTACGACGGGATT
# B18: UCGCGGG (DNA:RNA)
# RNA: B1 RNA with G25U, G26C, U27G, U28C, A29G, U30G
# DNA 1: CAATCTGAATTCCGGTCTCCC
# DNA 2: TGGTGGCTACGACGGGATT
# B19: GGAACCA (DNA:RNA)
# RNA: B3 RNA with U25G, U26G, G28A, C31A
# DNA 1: CAATCTGAATTCCGGTCTCCC
# DNA 2: TGGTGGCTACGACGGGATT
# B20: GUUUACC (DNA:RNA)
# RNA: B1 RNA with G26U, U30C, G31C
# DNA 1: CAATCTGAATTCCGGTCTCCC
# DNA 2: TGGTGGCTACGACGGGATT
# B21: CCAUCCA (DNA:RNA)
# RNA: B3 RNA with U25C, U26C, G28U, C31A
# DNA 1: CAATCTGAATTCCGGTCTCCC
# DNA 2: TGGTGGCTACGACGGGATT
# B22: UAUCGGA (DNA:RNA)
# RNA: B1 RNA with G25U, G26A, U28C, A29G, U30G, G31A
# DNA 1: CAATCTGAATTCCGGTCTCCC
# DNA 2: TGGTGGCTACGACGGGATT
# B23: GUGACAU (DNA:RNA)
# RNA: B3 RNA with U25G, A27G, G28A, C30A, C31U
# DNA 1: CAATCTGAATTCCGGTCTCCC
# DNA 2: TGGTGGCTACGACGGGATT
# B24: GCAGCCA (DNA:RNA)
# RNA: B3 RNA with U25G, U26C, C31A
# DNA 1: CAATCTGAATTCCGGTCTCCC
# DNA 2: TGGTGGCTACGACGGGATT
# B25: AAGACUC (DNA:RNA)
# RNA: B3 RNA with U25A, U26A, A27G, G28A, C30U
# DNA 1: CAATCTGAATTCCGGTCTCCC
# DNA 2: TGGTGGCTACGACGGGATT
# B26: ACUGGCC (DNA:RNA)
# RNA: B3 RNA with U25A, U26C, A27U, C29G
# DNA 1: CAATCTGAATTCCGGTCTCCC
# DNA 2: TGGTGGCTACGACGGGATT
# B27: GGUUUAU (DNA:RNA)
# RNA: B1 RNA with A29U, U30A, G31U
# DNA 1: CAATCTGAATTCCGGTCTCCC
# DNA 2: TGGTGGCTACGACGGGATT
# B28: ACAGAGA (DNA:RNA)
# RNA: B3 RNA with U25A, U26C, C29A, C30G, C31A
# DNA 1: CAATCTGAATTCCGGTCTCCC
# DNA 2: TGGTGGCTACGACGGGATT
# B29: AAACAAC (DNA:RNA)
# RNA: B3 RNA with U25A, U26A, G28C, C29A, C30A
# DNA 1: CAATCTGAATTCCGGTCTCCC
# DNA 2: TGGTGGCTACGACGGGATT
# B30: GCUGUUU (DNA:RNA)
# RNA: B1 RNA with G26C, U28G, A29U, G31U
# DNA 1: CAATCTGAATTCCGGTCTCCC
# DNA 2: TGGTGGCTACGACGGGATT
# B31: CGAAGGU (DNA:RNA)
# RNA: B1 RNA with G25C, U27A, U28A, A29G, U30G, G31U
# DNA 1: CAATCTGAATTCCGGTCTCCC
# DNA 2: TGGTGGCTACGACGGGATT
# Target: T1, RBFOX1 RRM
# Assay: EMSA; HiTS-Eq, 1 nM pool, 10 min; buffer printed only for the single-RNA assays: 10 mM Tris pH 7.5, 150 mM NaCl, 3.4 mM EDTA, 0.001% NP-40, 30 C
# Conditions: tags: His6 N-terminal (pET28a); label: 5' 32P
# Outline: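 Relative association constants, normalised to the cognate motif, were derived by comparing read counts of each RNA species with those of the control reaction. The RNA sequenced was the free fraction, separated by 8% native PAGE after a 10 min equilibration in 50 µL of 1 nM 5′-radiolabelled RNA (7 randomized nucleotides) with increasing concentrations of purified wild-type or mutant RbFox RRM.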
row,Binder,binding signal
1,B1,0.0112 KA relative to UGCAUGU
2,B2,0.000536 KA relative to UGCAUGU
3,B3,0.00664 KA relative to UGCAUGU
4,B4,0.00532 KA relative to UGCAUGU
5,B5,0.00703 KA relative to UGCAUGU
6,B6,0.0133 KA relative to UGCAUGU
7,B7,0.0173 KA relative to UGCAUGU
8,B8,0.00371 KA relative to UGCAUGU
9,B9,0.00568 KA relative to UGCAUGU
10,B10,0.00255 KA relative to UGCAUGU
11,B11,0.0121 KA relative to UGCAUGU
12,B12,0.0138 KA relative to UGCAUGU
13,B13,0.019 KA relative to UGCAUGU
14,B14,0.0134 KA relative to UGCAUGU
15,B15,0.0273 KA relative to UGCAUGU
16,B16,0.00218 KA relative to UGCAUGU

row,Binder,binding signal
1,B17,0.00706 KA relative to UGCAUGU
2,B18,0.0117 KA relative to UGCAUGU
3,B19,0.00565 KA relative to UGCAUGU
4,B20,0.0122 KA relative to UGCAUGU
5,B21,0.00471 KA relative to UGCAUGU
6,B22,0.000742 KA relative to UGCAUGU
7,B23,0.00809 KA relative to UGCAUGU
8,B24,0.00765 KA relative to UGCAUGU
9,B25,0.00554 KA relative to UGCAUGU
10,B26,0.0149 KA relative to UGCAUGU
11,B27,0.00895 KA relative to UGCAUGU
12,B28,0.00332 KA relative to UGCAUGU
13,B29,0.00125 KA relative to UGCAUGU
14,B30,0.0238 KA relative to UGCAUGU
15,B31,0.0154 KA relative to UGCAUGU
